# In the supplement of paper PMC11348887:
# Counter-ions that a name gives are not always drawn. The list shows a part of the results. No stated cut-off is given here; in the data, active = -2 or less and inactive = the rest. Single values are uncertain, as repeats are few or missing.
# Tested on: hPSC-derived cortical neurons (WA09)
# Assay: nuclei number (viability) z-score; higher = more surviving cells
# Conditions: 5 µM; treatment: days 7-14 after plating, readout day 21
# 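Further: nuclei counted from DAPI counterstain by automated high-content image analysis, four fields per well at ×20 in 384-well plates, with sequential b-score then z-score normalization.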
row,SMILES,nuclei number (z-score)
1,O=C1CC[C@@H](C(=O)N2CSC[C@H]2C(=O)O)N1 [Pidotimod],inactive: -0.147
2,c1ccc(-c2ccc(C(c3ccccc3)n3ccnc3)cc2)cc1 (configuration not stated) [Bifonazole],inactive: -0.204
3,Oc1c(Cl)cc(Cl)c2cccnc12 [Chloroxine],inactive: 1.49
4,COc1cc2ncnc(Nc3cccc(Cl)c3F)c2cc1OC(=O)N1CCN(C)C[C@H]1C,inactive: 0.139
5,COc1ccc(Cl)cc1NC(=O)Nc1cc(C)nc2ccccc12,inactive: -0.0707
6,CN(C)CCC(c1ccc(Br)cc1)c1ccccn1 (configuration not stated) [Brompheniramine hydrogen maleate],inactive: 6.28
7,O=C(Nc1cccnc1)c1cc(-c2ccnc(F)c2)ccc1OCc1ccccc1,inactive: 0.85
8,CCCNC(=O)c1cn2ncnc(Nc3cc(C(=O)NC4CC4)ccc3C)c2c1C,inactive: 0.16
9,COC(=O)C1=C(C)NC(C)=C(C(=O)OC(C)(C)CN(C)CCC(c2ccccc2)c2ccccc2)C1c1cccc([N+](=O)[O-])c1 (configuration not stated) [Lercanidipine hydrochloride],active: -8.31
10,C=CC(=O)Nc1cccc(Oc2nc(Nc3ccc(N4CCN(C)CC4)cc3)ncc2Cl)c1,active: -2.07
11,C[C@@](Cc1ccc(O)c(O)c1)(NN)C(=O)O [Carbidopa],inactive: -0.248
12,O=C(Oc1cccc(F)c1OC(=O)c1cccc(O)c1)c1cccc(O)c1,active: -4.53
13,CCOc1nc2cccc(C(=O)O)c2n1Cc1ccc(-c2ccccc2-c2nnn[nH]2)cc1 [Candesartan],inactive: 0.0951
14,NC(=O)[C@@H]1CSSCCC(=O)N[C@@H](CCCCN=C(N)N)C(=O)NCC(=O)N[C@@H](CC(=O)O)C(=O)N[C@@H](Cc2c[nH]c3ccccc23)C(=O)N2CCC[C@H]2C(=O)N1 [Eptifibatide Acetate],inactive: 0.658
15,CCCCC(CC)COC(=O)CC(C(=O)OCC(CC)CCCC)S(=O)(=O)O (configuration not stated) [Docusate Sodium],inactive: 0.454
16,Nc1ncnc2c1ncn2[C@@H]1O[C@H](CO)[C@@H](O)[C@@H]1O [Vidarabine],inactive: -0.0777
17,CC1CCN(CC[C@H]2CCCN2S(=O)(=O)c2cccc(O)c2)CC1,inactive: -0.00247
18,COc1cccc(C=NCCN=Cc2cccc(OC)c2[O-])c1[O-].[Cl-].[Mn+3],inactive: -0.762
19,COC(=O)Nc1nc2cc(Sc3ccccc3)ccc2[nH]1 [Fenbendazole],inactive: -0.0278
20,Cc1ccc([C@@H]2O[C@H](CO)[C@@H](O)[C@H](O)[C@H]2O)cc1Cc1ccc(-c2ccc(F)cc2)s1 [Canagliflozin],inactive: 2.72
21,CC(C)(C)c1cc(C(C)(C)C)c(NC(=O)c2c[nH]c3ccccc3c2=O)cc1O [Ivacaftor (VX-770)],inactive: 0.407
22,CC(C)NC[C@@H](C(=O)N1CCN(c2ncnc3c2[C@H](C)C[C@H]3O)CC1)c1ccc(Cl)cc1,active: -3.01
23,Oc1cc2c(cc1O)C(c1ccccc1)CNCC2 (configuration not stated),inactive: 0.0562

row,SMILES,nuclei number (z-score)
1,Cn1c(=O)c2c(ncn2CC2OCCO2)n(C)c1=O [Doxofylline],inactive: -0.324
2,COCC(=O)NC/C=C/c1ccc2ncnc(Nc3ccc(Oc4ccc(C)nc4)c(C)c3)c2c1,inactive: 6.83
3,CCCCNc1ncc(C(=O)NCc2ccc(-n3ccnc3)cc2)c(NC2CCC(O)CC2)n1 (configuration not stated),inactive: -0.468
4,C=CC(=O)Nc1cccc(Sc2nc(Nc3ccc(N4CCN(C)CC4)cc3)ncc2Cl)c1,active: -3.68
5,CCOC(=O)[C@H]1O[C@@H]1C(=O)N[C@@H](CC(C)C)C(=O)NCCC(C)C [Aloxistatin],inactive: 0.357
6,CN[C@H]1CC[C@@H](c2ccc(Cl)c(Cl)c2)c2ccccc21 [Sertraline HCl],inactive: -1.85
7,OCCn1cc(-c2ccc3c(c2)CC/C3=N\O)c(-c2ccncc2)n1,inactive: 0.927
8,CN1CCc2nc(C(=O)N[C@@H]3C[C@@H](C(=O)N(C)C)CC[C@@H]3NC(=O)C(=O)Nc3ccc(Cl)cn3)sc2C1 [Edoxaban],inactive: -0.692
9,CC[C@H]1OC(=O)[C@H](C)[C@@H](O[C@H]2C[C@@](C)(OC)[C@@H](O)[C@H](C)O2)[C@H](C)[C@@H](O[C@@H]2O[C@H](C)C[C@H](N(C)C)[C@H]2O)[C@](C)(O)C[C@@H](C)CN(C)[C@H](C)[C@@H](O)[C@]1(C)O [Azithromycin Dihydrate],inactive: 0.0547
10,CC[C@H]1OC(=O)[C@H](C)[C@@H](O[C@H]2C[C@@](C)(OC)[C@@H](O)[C@H](C)O2)[C@H](C)[C@@H](O[C@@H]2O[C@H](C)C[C@H](N(C)C)[C@H]2O)[C@](C)(O)C[C@@H](C)CN(C)[C@H](C)[C@@H](O)[C@]1(C)O [Azithromycin],inactive: 0.212
11,Cc1ccc(-c2cc(C(F)(F)F)nn2-c2ccc(S(N)(=O)=O)cc2)cc1 [Celecoxib],inactive: 0.00989
12,CC(C)[N+]1(C)[C@@H]2CC[C@H]1C[C@@H](OC(=O)C(CO)c1ccccc1)C2 (some centres not stated) [Ipratropium Bromide],inactive: 3.13
13,O=C(O)c1cccc(-c2noc(-c3ccccc3F)n2)c1 [Ataluren (PTC124)],inactive: 0.257
14,Nc1ccc(S(=O)(=O)Nc2nccs2)cc1 [Sulfathiazole],inactive: -0.802
15,C=C[C@]1(C)C[C@@H](OC(=O)CSC(C)(C)CNC(=O)[C@H](N)C(C)C)[C@]2(C)[C@H](C)CC[C@]3(CCC(=O)[C@H]32)[C@@H](C)[C@@H]1O [Valnemulin HCl],inactive: 0.398
16,Cc1c(-c2ccc(O)cc2)n(Cc2ccc(OCCN3CCCCCC3)cc2)c2ccc(O)cc12 [Bazedoxifene HCl],active: -4.04
17,Cc1c(-c2ccc(O)cc2)n(Cc2ccc(OCCN3CCCCCC3)cc2)c2ccc(O)cc12 [Bazedoxifene Acetate],active: -6.01
18,CCc1cc2c(cc1CC)CC(NC[C@H](O)c1ccc(O)c3[nH]c(=O)ccc13)C2 [Indacaterol Maleate],inactive: 0.336
19,CCN(CC)CCNC(=O)c1ccc(N)cc1 [Procainamide HCl],inactive: -0.909
20,NC[C@H](O)c1ccc(O)c(O)c1 [Noradrenaline bitartrate monohydrate],inactive: 0.43
21,CC(C=CC1(O)C(C)=CC(=O)CC1(C)C)=CC(=O)O (configuration not stated) [Abscisic Acid (Dormin_],inactive: 0.833
22,O=[N+]([O-])c1ccc(Nc2nc(N3CCOCC3)nc(N3CCOCC3)n2)cc1,inactive: 2.07
23,CCCCOc1cc(C(=O)OCCN(CC)CC)ccc1N [Oxybuprocaine HCl],inactive: -0.557

row,SMILES,nuclei number (z-score)
1,O=C1O[C@H]([C@@H](O)CO)C([O-])=C1O.[Na+] [Sodium ascorbate],inactive: 0.936
2,N#C/C(=C1/SC[C@@H](c2ccc(Cl)cc2Cl)S1)n1ccnc1 [Luliconazole],inactive: 0.0842
3,CCOC(=O)C1=C(N)Oc2ccc(Br)cc2C1C(C#N)C(=O)OCC (configuration not stated),inactive: 2
4,Cc1cc(C(C)Nc2ccccc2)c2nc(N3CCOCC3)cc(=O)n2c1 (configuration not stated),inactive: 0.748
5,NC1(Cc2ccc(Cl)cc2)CCN(c2ncnc3[nH]ccc23)CC1,inactive: 0.824
6,N[C@H]1CC[C@H](N[C@@H]2C[C@H]2c2ccccc2)CC1,inactive: -0.396
7,CC(C)Oc1ccc2c(=O)c(-c3ccccc3)coc2c1 [Ipriflavone (Osteofix)],inactive: 3.4
8,CC(=O)Nc1nnc(S(N)(=O)=O)s1 [Acetazolamide],inactive: 0.217
9,CCCCOc1ccc(C(=O)Nc2ccc(F)cc2F)cc1,inactive: 0.304
10,Nc1nc(OCc2cc(Br)cs2)c2[nH]cnc2n1 [Lomeguatrib],inactive: 0.325
11,Clc1ccc2nsnc2c1NC1=NCCN1 [Tizanidine HCl],inactive: -0.0784
12,Cc1cc(Nc2cc(N3CCN(C)CC3)nc(Sc3ccc(NC(=O)C4CC4)cc3)n2)n[nH]1 [VX-680 (Tozasertib_ MK-0457)],inactive: 0.359
13,C=C[C@](C)(O)CC[C@@H]1[C@@]2(C)CCCC(C)(C)[C@@H]2CC[C@@]1(C)O [Sclareol],inactive: 0.095
14,CO/N=C(\C(=O)N[C@@H]1C(=O)N2C(C(=O)O)=C(COC(C)=O)CS[C@H]12)c1csc(N)n1 [Cefotaxime sodium],inactive: -0.595
15,Clc1ccc(C2(c3ccc(-c4cn[nH]c4)cc3)CCNCC2)cc1,inactive: 0.823
16,CNC(=O)[C@@H](NC(=O)[C@H](CC(C)C)[C@H](O)C(=O)NO)C(C)(C)C [Marimastat(BB-2516)],inactive: 0.557
17,C[C@]12CC[C@@H]3c4ccc(O)cc4C[C@@H](CCCCCCCCC[S+]([O-])CCCC(F)(F)C(F)(F)F)[C@H]3[C@@H]1CC[C@@H]2O (some centres not stated) [Fulvestrant],inactive: 13.8
18,COC(=O)[C@H](Cc1ccccc1)NC(=O)[C@@H](N)CC(=O)O [Aspartame],inactive: -0.305
19,CCS(=O)(=O)c1cccc(-c2cc(C(=O)NC3CCN(C)CC3)c(C)c3[nH]c4ncc(C)cc4c23)c1,active: -6.62
20,CC(C(O)c1ccc(O)cc1)N1CCC(Cc2ccccc2)CC1 (configuration not stated) [Ifenprodil Tartrate],active: -3.84
21,C[C@@H]1C/C=C/C=C/C=C/C=C/[C@H](O[C@@H]2O[C@H](C)[C@@H](O)[C@H](N)[C@@H]2O)C[C@@H]2O[C@](O)(C[C@@H](O)C[C@H]3O[C@@H]3/C=C/C(=O)O1)C[C@H](O)[C@H]2C(=O)O [Natamycin],inactive: 2.9
